Read counts are not given, so values of variants with three or more changes are uncertain.
B1: CPEB3 Ribozyme (parent)
chain: UAACAGGGGGCCACAGCAGAAGCGUUCACGUCGCAGCCCCUGUCAGAUUCUGGUGAAUCUGCGAAUUCUGCUGUAUAUCUC

Variants of: B1
Assay: self-cleavage, relative activity (ratio to wild type); higher = more cleavage; in vitro, sequencing
In short: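 Relative activity was defined as the cleaved/total read fraction for a variant divided by the same fraction for the unmutated ribozyme. CPEB3 self-cleaving ribozyme libraries were made by rounds of error-prone PCR, barcoded, and transcribed in vitro with T7 RNA polymerase for 5 hours at 37°C, and cleavage ran through transcription plus a 15 min DNase I step before EDTA. Illumina sequencing of template-switched reverse transcripts gave the reads, and DNA sequencing mapped the barcodes. Averages come from three batches, using variants with at least 5 reads.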

Variant | self-cleavage
UAACAGGUGGCCACAGCAGAAGCGUUCACGCCGCGGCCCCUGUUAGAUUCUGGUGAAUCUGCGAAUUCUGCUGUAUAUCUC [G8U U31C A35G C44U] | 0.05
UAACAGGUGGCCACAGCAGAAGCGUUCACAUCGCAGCCCCUGUCAGAUCCAGGUGAAUCUGAGAAAUCUGCUGAAUAUCUC [G8U G30A U49C U51A C62A U66A U74A] | 0.02
UAACAGGUGGCCACAGCAGAAGCGCUCACGUCGCAGCCCCUGUCAGAUUCUCGUGAAUCCGCGAAAUCUGCUGUACAUCUC [G8U U25C G52C U60C U66A U76C] | 0.06
UAACAGGUGGCCACAGCAGAAGCGUACACGUCGCAGCCCCUGUCAGAUUCUGGUGGAUCUGCGAAUUCUGCUGUAUAUCUC [G8U U26A A56G] | 0.07
UAACAGGUGGCCACAGCAGAAGCGAUCACGCCGCAGCCCCUGUCAGGUUCUGGUGAUUCUGCUAAUUCUGCCGUAUAUCUC [G8U U25A U31C A47G A57U G63U U72C] | 0.04
UAACAGGUGGCCACAGCAGAAGCGUACACGUCGCAGCCCCUGUCAGAUUCUGGUGAAUCUGCGAAUUCUGCCGUAUAUCUC [G8U U26A U72C] | 0.16
UAACAGGUGGCCACAGCAAAAGAGUUCACGUCGCAGCCCCUGUCAGAUCCUGGUGUAUCUGCGAAUUUUGCUGUAUAUCUC [G8U G19A C23A U49C A56U C68U] | 0.04
UAACAGGUGGCCACAGCAGAAGCGUUCACGUCGCAGCCCCUGUCAGAUUCUGGUCAAUCUGCGAAAUCUGCUGUAUAUCUC [G8U G55C U66A] | 0.05
UAACAGGUGGCCACAGCAGAAGCGUUCACGACGCGGCCCCUGUCUGAUUAUGGUGAAUCUGCGAACUCUGCUGUAUGUCUC [G8U U31A A35G A45U C50A U66C A77G] | 0.03
UAACAGGUGGCCACAGCAGAAGCGCACACGUCGCAGCCCCUGUCAGAUUCUGGUGAAUCUGCGAAUUCUGCAGUAUAUCUC [G8U U25C U26A U72A] | 0.05
UAACAGGUGGCCACAGCAGAAGCGUUCACAUCGCAGCCCCGGUCAGAUUCUGGGGAAUCUGCGAAUUCUGCUGUAUAUCUC [G8U G30A U41G U54G] | 0.02
UAACAGGUGGCCACAGCAGAAGCGUUCACGUCGCAGCCCCUGUCAGAUUCUGGUAAAUCAGCGAAUUCUGCUGUAUACCUC [G8U G55A U60A U78C] | 0.09
UAACAGGUGGCCACAGCAGAAGCGUUCACGUCACAGCACCUGUCAGGUUCGGGUGAAUCUGCGAAUUCUGCUGUAUAUCUC [G8U G33A C38A A47G U51G] | 0.1
UAACAGGUGGCCACAGCAGAAGCGUACACGUCGCAGCCCCUGUCAGAUUCUGGUGAAUCUCCGAAUUCUGCUGUAUAUCUC [G8U U26A G61C] | 0.11
UAACAGGUGGCCACAGCAGAAGCGUUCACGUCACAGCCCCUGUCAGAUUCUGGUGGAUCUGCGAAUUCUGCUGUAUAUCUC [G8U G33A A56G] | 0.04
UAACAGGUGGCCACAGCACAAGCGUUCACGUCGCAGCCCCUGUCAGAUUCUGGUGAAUCUGCGAAUUCCGCUGUAUAUCUC [G8U G19C U69C] | 0.12
UAACAGGUGGCCACAGCAGAAGCGUUCACGCCGCAGCCCCUGUCAGAUUCUGGUGAAUCUGCAAAUUCUGCUGUAUAUCUC [G8U U31C G63A] | 0.17

Variant | self-cleavage
UAACAGGUGGCCACAGCAGAAGCAUUCACGUCGCGGCCCCUGUCAGAUUCUGGUGAAUCUGCGAAUUCUGCUGUAUAUCUC [G8U G24A A35G] | 0.15
UAACAGGUGGCCACAGCAGAAGCGUUCACUUCGCAGCCCCUGUCCGAUUCAGGUGAAUCUGCGUAUUCUGCUGUAUAUCUC [G8U G30U A45C U51A A64U] | 0.09
UAACAGGUGGCCACAGCAGAAGCGUACACGUCGCAGCCCCUGUCAGAUUCAGGGGAAUCUGCGAAUUCCGCGGUAUAUCUC [G8U U26A U51A U54G U69C U72G] | 0.06
UAACAGGUGGCCACAGCAGAAGCGGUCACGUCGCAGCCCCUGUCAGACUCUGGAGAACCUGCGAAUUCUGCUGUAUAUCUC [G8U U25G U48C U54A U58C] | 0.03
UAACAGGUGGCCACAGCAGAAGCGUUCACGUCGCAGCCCCUGUCAUAUUCUGGCGAAUCCGCGAAUUCUGCUGUAUAUCUC [G8U G46U U54C U60C] | 0.06
UAACAGGUGGCCACAGCAGAAGCGUUCACGCCGCAGCCCCCGUCAGAUUCUGGUGGAUCUGCGAAUUCCGCUGUAUAUCUC [G8U U31C U41C A56G U69C] | 0.13
UAACAGGUGGCCACAGCAGAAGCGUCCACGUCGCAGCCCCUGUCAGAUACUGGUGAAUCUGCCAAUUCUGCUGUAUAUCUC [G8U U26C U49A G63C] | 0.12
UAACAGGUGGCCACAGCAGAAGCGUACACGCCGCAGCCCCUGUCAGCUUCUGGUGAAUAUGCGAAUUCUGUUGUAUAUCUC [G8U U26A U31C A47C C59A C71U] | 0.04
UAACAGGUGGCCACAGCAGAAGCUCUCACGUCGCAGCCCCUGUCAGACUCUGGUGAACCUGCGAAUUCUGCUGUAUAUCUC [G8U G24U U25C U48C U58C] | 0.06
UAACAGGUGGCCACAGCAGAAGCGUUCACGUCACAGACGCUGUCAGAUACUGGUGAAUCUGGGAAUUCUGCUGUAAAUCUC [G8U G33A C37A C39G U49A C62G U76A] | 0.01
UAACAGGUGGCCACAGCAGAAGCGCUCACGUCGCACCCCCUGUCAGAUUCUGGUGAACCUGCGAAUUCUGCUGUAUAUCUC [G8U U25C G36C U58C] | 0.1
UAACAGGUGGCCACAGCAGAAGCGUUCACGCCGCAGCCCCCGUCAGAUUCUGGUGAAUCUGCGAAUUCUGCUGUAUAUCUC [G8U U31C U41C] | 0.15
UAACAGGUGGCCACAGCAGAAGCUUACACGUCGCGGCCCCUGUCUGAUUCUGGUGAAUCUGCGAAUUCUGCUGUAUAUCUC [G8U G24U U26A A35G A45U] | 0.07
UAACAGGUGGCCACAGCAGAAGCGUUCACUUCGCAGCCCCUGUCAGAUUCUGGUGAAUCUGCGGAUUCUGCUGUAUAUCUC [G8U G30U A64G] | 0.05
UAACAGGUGGCCACAGCAGAAGCGUCCACGUCGCAGCCCCUGUCAGAUUCCGGUGAAUCUGCGAAGUCUGCUGUAUAUCUC [G8U U26C U51C U66G] | 0.12
UAACAGGUGGCCACAGCAGAAGCGUUCACGUCGCAGCCCCUGUCAGAUUCUGCCGAAUCUGCGAAUUCUGCUGUAUAUCUC [G8U G53C U54C] | 0.18
UAACAGGUGGCCACAGCAGAAGCGUUCACGACGCAGCCCCUGUCAGAUUCUGGUGAAUCUGCGAAUACUGCUGUAUAUCUC [G8U U31A U67A] | 0.11

Source: the RNAGym collection of RNA variant scans (doi:10.1093/nar/gkz1192)
